# According to paper PMC12136788:
# The other results are listed elsewhere or left out.
# T1: UNK ZnF1-3 (human, UniProt Q9C0B0 31-174)
# T1 sequence: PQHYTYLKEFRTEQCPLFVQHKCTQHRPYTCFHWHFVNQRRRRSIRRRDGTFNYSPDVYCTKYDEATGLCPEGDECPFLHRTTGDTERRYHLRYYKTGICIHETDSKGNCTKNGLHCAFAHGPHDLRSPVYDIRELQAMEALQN
# B1: chr17:65740002:65740003:+_ENSG00000130935_ENST00000581375|hu_hu|hu_hu_hu_mus_False|8_78 (ssRNA)
# RNA: GGGAGUUCUACAGUCCGACGAUCAACAAAUCUUUCUUCCCUGGACGAACAGGAAGACAUAAAAGAGAAAAAAUAUAUAUCCAUCAAGUUAGGUGUGGUGGCCACACCUUUACUCCCAGCACUUUGGGAAUAUAAUCUCUGAGUCAACAGAGGAUUGAGCAUCA
# B2: chrX:71549400:71549401:+_ENSMUSG00000019087_ENSMUST00000019231|mus_hu|mus_mus_mus_hu_False|28_28 (ssRNA)
# RNA: GGGAGUUCUACAGUCCGACGAUCGCAGUAGGAAGAGGGAAGCUCUUCAGUCCAGUGCGCUGCAGGGUGGGAAAGCAACAACACGGACACCGUCCCACCCUCAACCCUCUCAGGUGUACAGGGUCACACAAUCUGGGUCAAAGACAACAGAGGAUUGAGCAUCA
# B3: chr6:136599331:136599332:-_ENSG00000029363_ENST00000527536|hu_hu|motif|central (ssRNA)
# RNA: GGGAGUUCUACAGUCCGACGAUCGGGAGCAUCAGAGCAAGAUGAACUCUGACUAGGUGGUGUAGCAAUAGGUGAAGGACGGUGGGGUGAUCUAGGACUAUUAUCAUAAGCUGAAAGGCCAGGCCAAAUAUCACCGGAUGUGGCCAACAGAGGAUUGAGCAUCA
# B4: 10778163_10778283_2511_3pUTR_ENSMUSG00000024294_ENSMUST00000052838|mouse|control|control (ssRNA)
# RNA: GGGAGUUCUACAGUCCGACGAUCAGUGCAGCAUGGUGCAGGGCAUUGAACCCGUUAUUGUUCGUGAUGGUCACAUCUGCUCCAGCUUCCAGAAGAACUGCCAGAAUGUCAUCCCGUUUCUUACUUAUGGCAUCAUGGAGAGGGCAACAGAGGAUUGAGCAUCA
# B5: 87593544_87593664_207_3pUTR_ENSG00000163629_ENST00000511467|human|control|control (ssRNA)
# RNA: GGGAGUUCUACAGUCCGACGAUCGAUUUUGAAGAACCUCUGGUGCAGUGAAUGCUCGAAGAUCCUGAUUGGAAAUAUUUUCAUCUGUAAAUGACACACUACCAGAUGGCAGCAACAGCAGAGACCAUGGAGAAAUGAUGAAGCCAACAGAGGAUUGAGCAUCA
# B6: chr12:39756943:39756944:-_ENSG00000139116_ENST00000544797|hu_mus|hu_hu_hu_mus_False|38_68 (ssRNA)
# RNA: GGGAGUUCUACAGUCCGACGAUCGGUUUGGCUGUUACCCCCAAGGGAAUCCUGCAAGAGUCUUGUCAGCUUGGAAUCUCUGUAAGGGACAUGGGUGGCCCUCUUGCUCUUGUCCCCCAAGGCGCUGAUUACAUUCCCAAGAGCCAACAGAGGAUUGAGCAUCA
# B7: chr2:216981417:216981418:+_ENSG00000079246_ENST00000392132|hu_hu|hu_hu_hu_mus_True|1_1 (ssRNA)
# RNA: GGGAGUUCUACAGUCCGACGAUCCUGAUACUGGUCCUUGCCAGCAAGGGCAUUAUCAGUGCCAUCUGUGCCAUAGAGGACUAACGCAAUCUCAUCUUUGCUCUCCGAAAAUACCUGUCGUUGGACAAACAUAGUCAUCACCUUCAACAGAGGAUUGAGCAUCA
# B8: 130037582_130039980_264_3pUTR_ENSMUSG00000074088_ENSMUST00000105994|mouse|control|control (ssRNA)
# RNA: GGGAGUUCUACAGUCCGACGAUCAAGCCAGGGUGGAUCCAUUGGGGUGAAACUUGCAGCAGUACACUUCCCCCUCAUGUCCCGAGAGCAGCAUGAUUGGAGCUUGAAGGGAAGAACACCUGGGCGGUCCCGCCUGCAGCAAUGCAACAGAGGAUUGAGCAUCA
# B9: 53432259_53432480_2043_3pUTR_ENSG00000072501_ENST00000322213|human|control|control (ssRNA)
# RNA: GGGAGUUCUACAGUCCGACGAUCGGUCACUGGCCCCACCAGAGAUCACUCCUGACUUCUGGAAUAGGGUUCCAUCCAGUGCCACUGUCUUGUGGCGCUGGUGGCCUCCAAAGGCAAUGCGGCGGGCAUCUUCCACGUUGUCACCAACAGAGGAUUGAGCAUCA
# B10: chr4:144391305:144391306:+_ENSG00000109458_ENST00000262995|hu_hu|motif|central (ssRNA)
# RNA: GGGAGUUCUACAGUCCGACGAUCGGCACUAUGGUGUCAAAAGACAGAAUUUCAUAGAGUAAUAAAUCUGAAUUACGGUCGGAUUAAAAAUCACAGUAUGUUGCUGUAACUAACAGUGAAUGUCAACUGCUUUAUUAAUUCCAACAACAGAGGAUUGAGCAUCA
# B11: chr2:29004620:29004621:+_ENSG00000213639_ENST00000296122|hu_mus|motif|central (ssRNA)
# RNA: GGGAGUUCUACAGUCCGACGAUCCAAUUUAAUAUUAAAUCUUCGUUUACACUCAUCGUAGAAUCCAUAAAUGCGAUUGAUGCGGGCACACUCAUGGUUUCCUCUUAGAAGAAAGAAGUUCUCCGGGUAUUUGAUUUUGUAAGCCAACAGAGGAUUGAGCAUCA
# B12: chr9:44565267:44565268:-_ENSMUSG00000032096_ENSMUST00000034607|mus_hu|FALSE|FALSE (ssRNA)
# RNA: GGGAGUUCUACAGUCCGACGAUCAUUAAUGGGUGGAGCAUGCAUUUUGGUUGCUUCAGAAGUACGCUUGCCCAUACUAGAGGACAUGAUGGUUUCACCUUCAGAUUUUAAUUUGUCCACAAAGUUAUCUACUUCCUUUCCUUUCAACAGAGGAUUGAGCAUCA
# B13: 243354369_243354489_1050_3pUTR_ENSG00000143702_ENST00000366542|human|control|control (ssRNA)
# RNA: GGGAGUUCUACAGUCCGACGAUCUCCUCUUCUGUUCUUUCCCAUAGCAUUUGAGGAGGGUUGUUUUGUGCUAGCCAGUCAGCAACUUUGUUUUCGGGUGCCAUCAUUCCUGUUUGAAUCCCCAGCAAGUCUUGAGUUCCAGGACAACAGAGGAUUGAGCAUCA
# B14: chr19:16212804:16212805:+_ENSG00000167460_ENST00000300933|hu_mus|hu_hu_hu_mus_False|1_28 (ssRNA)
# RNA: GGGAGUUCUACAGUCCGACGAUCAACAAUUCUGGAGUGAAGGAAAGAUGUAACAUGGAACAGCAUUAAAGCUCAGUCAGAAGGCACAUGGGCAACAAUGAUCACCCCCCAAGCAUUGCUUGGAAUGCUUAAAGACAGAUGUUUCAACAGAGGAUUGAGCAUCA
# B15: chr6:31700055:31700056:-_ENSG00000213719_ENST00000375779|hu_mus|motif|central (ssRNA)
# RNA: GGGAGUUCUACAGUCCGACGAUCUCCACGGAAUGCCUCUGGGAUGGUGAAGCCUCUGUACUUUUUGCACACCACCUGUACGGUGUGAAGCUUUGGCAGCAGGUUGCAGUCAGCCAGGGUGAGCUCAUUGCCGUCCAGAAACUUCAACAGAGGAUUGAGCAUCA
# B16: 15287172_15288884_2317_CDS_ENSG00000131375_ENST00000253693|human|control|control (ssRNA)
# RNA: GGGAGUUCUACAGUCCGACGAUCUUGGAAAUUUCCACAUCCUCCAGCACUCUGACCACUCCACUUUCCAUUAAUCCGUUUUGAUAAGGUGUAUGGUGAAGGAAUCUUUGAAAAAGUAAAGCUGCAUGCUGAAUAUACCCGAACCAACAGAGGAUUGAGCAUCA
# B17: 3596234_3596354_291_5pUTR_ENSMUSG00000040302_ENSMUST00000042753|mouse|control|control (ssRNA)
# RNA: GGGAGUUCUACAGUCCGACGAUCCCGCCCCCUAGAGCUUCGGAGGUGGCCCGAGGGUGACAGCGGCCGGGCGUGGGAAGAGGGGGGCGGGCCUGAUCGAUGUUCUCGGGUUCCGACGCUCUCACCUGACGAGAAGCCGGUGGACAACAGAGGAUUGAGCAUCA
# B18: chr3:179287964:179287965:+_ENSG00000136518_ENST00000429709|hu_hu|motif|central (ssRNA)
# RNA: GGGAGUUCUACAGUCCGACGAUCUUUUAGAGGUGAAAUGGCCUCCAUAUUCUCCCUCGGAACACGCAGAGCAUUAGUAUCGGUGUAGUAGGUGGGACCGCCUUGUUUGCCUUUAUCGCCAUCUAUUUCCAUUAAUGUGCUUCCCAACAGAGGAUUGAGCAUCA
# B19: 110446508_110446628_2264_3pUTR_ENSG00000134987_ENST00000506538|human|control|control (ssRNA)
# RNA: GGGAGUUCUACAGUCCGACGAUCUUUGGAGAUGAACUGAGGCUCACAGAAUGGAUUAAAAUUUUGUUUUUAAAGUUCCAGAAUUUGAGUAAUCCUUCACUACCAGUUGUAACUGUCAACUGGUUUAAUCCAUCCACUGCGACACAACAGAGGAUUGAGCAUCA
# B20: chr11:9452432:9452433:+_ENSG00000205339_ENST00000379719|hu_mus|FALSE|FALSE (ssRNA)
# RNA: GGGAGUUCUACAGUCCGACGAUCAAAUGUCAUUGCCAGAUGUUGUGUCAUUUCUACAGCAAUAGGAGUAACUUCUUCACUAUAUUCACAGAUCAUUUUCUGAAUUACAUUUGUAAGAUCAUCAUUUUCUGUUUCUCUUAUAAUCAACAGAGGAUUGAGCAUCA
# B21: chr12:105540249:105540250:+_ENSG00000136051_ENST00000332180|hu_hu|motif|central (ssRNA)
# RNA: GGGAGUUCUACAGUCCGACGAUCAUUGUUGAGAUUAUAGAGGUAUCGGGACACAAAUAUAUGAAUGUUUCUCAUAAUUUCGGAAACAUCAAGGCCCUGUUCCAAAGUCUGACUGGGAAGAUGUGCCUCUGUCAUAACCAGUCCCAACAGAGGAUUGAGCAUCA
# B22: chr1:109605286:109605287:-_ENSG00000197780_ENST00000461096|hu_mus|hu_hu_hu_mus_True|38_68 (ssRNA)
# RNA: GGGAGUUCUACAGUCCGACGAUCAAGUUUCAGAGUAACAUUCAGUAACCUCUUUAAAUGCAAUUAUCCUUACUUUAAGCUAAGCAGAAUAAUAAUUUAAUACAUAGAGUGAACUACACACAAAGCCUGAACCGCGAAAAUGGUCAACAGAGGAUUGAGCAUCA
# Biological target: T1, UNK ZnF1-3
# Assay: nsRBNS (natural sequence RNA bind-n-seq); RBNS binding buffer (assumed for nsRBNS): 25 mM Tris pH 7.5, 150 mM KCl, 3 mM MgCl2, 0.01% Triton X-100, 500 ug/ml BSA, 20 U/ml SUPERase-In, 4 C; UNK is unkempt and MSI1 is Musashi-1; names of the RNAs are library labels; protein concentration not given here; high values mean tight binding
row,Binder,binding signal [enrichment R]
1,B1,1.02
2,B2,0.938
3,B3,1.83
4,B4,1.2
5,B5,1.87
6,B6,0.866
7,B7,0.744
8,B8,1.06
9,B9,0.548
10,B10,0.561
11,B11,1.1
12,B12,0.607
13,B13,0.667
14,B14,1.34
15,B15,0.768
16,B16,1.34
17,B17,0.423
18,B18,0.677
19,B19,0.866
20,B20,0.605
21,B21,1.5
22,B22,0.711
